In PubChem BioAssay AID1508642 (National Center for Advancing Translational Sciences (NCATS), 2021):
Screen size: about 43,000 compounds; about 200 (0.47%) were called active. About 12% were inconclusive and are not listed. The call rests on the fitted dose curve; in most records, active means well fitted cell-killing curve with a large enough effect; inconclusive means small, poorly fitted or top-dose-only effect, or effect the other way; inactive means flat fitted curve, though single readings scatter. This is one part of the list.
On the % scale 0 is the no-effect control and ±100 the full control effect.

Experiment: Cell viability qHTS assay in S16 Pmp22-F2sN cells; further: nearly all actives have a fitted effect of over 65% in size
Details: S16 Pmp22-F2sN Schwann cells viability, CellTiter-Glo, 24 h; series mostly up to 57.5 µM; activity change, negative = cytotoxicity: at the top concentration
Method in brief: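 S16 Pmp22-F2sN Schwann cells (500-1,000/well) in phenol-red-free DMEM with 10% FBS received 23 nL compound by pin tool for 24 h at 37 °C. Viability was then read as CellTiter-Glo luminescence after 15 min at room temperature.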
In the case of CCOC(=O)C1CCN(C(=O)Cn2c(=O)cc(C)c3c(C)nn(C)c32)CC1, the “activity change, negative = cytotoxicity” value is reported as inactive: 0.501%.
For COc1ccc(CNC(=O)c2cc3c(=O)[nH]c4ccccc4c3s2)cc1, the “activity change, negative = cytotoxicity” value was inactive: -13.1%.
In the case of CCOC(=O)c1ccccc1NC(=O)CCOc1ccccc1, the “activity change, negative = cytotoxicity” value is reported as inactive: 0.326%.
In the case of Cc1cccc(N2CCN(C(=O)NCc3noc4ccccc34)CC2)c1C, the “activity change, negative = cytotoxicity” value is reported as inactive: -15.8%.
For Cc1cc(C)c(CSc2nnc(C)n3c2cc2occc23)c(C)c1, the “activity change, negative = cytotoxicity” value was inactive: -1.18%.
With CCN(Cc1ccccc1)C(=O)c1nc(-c2cccc(F)c2)n2c1CCCCC2 the “activity change, negative = cytotoxicity” value was inactive: -6.43%.
For COCCCNC(=O)C1CCCN(C(=O)c2cnn(-c3ccc(F)cc3)c2-n2cccc2)C1 (configuration not stated), the “activity change, negative = cytotoxicity” value was inactive: 1.19%.
In the case of Cc1ccc(SCc2nc(-c3ccc(C(=O)NCc4ccc(Cl)cc4)cc3)oc2C)cc1, the “activity change, negative = cytotoxicity” value is reported as inactive: 15.6%.
In the case of O=C(NC1CCCCC1)c1cc(Nc2cccc(C(F)(F)F)c2)nc2ccccc12, the “activity change, negative = cytotoxicity” value is reported as inactive: 6.15%.
In the case of COc1cc(C(=O)Nc2nc3nc(-c4ccccc4)cc(=O)n3[nH]2)cc(OC)c1OC, the “activity change, negative = cytotoxicity” value is reported as inactive: 8.38%.
In the case of Cc1ccn2c(=O)cc(CSc3nnc(NC(=O)c4ccccc4Cl)s3)nc2c1, the “activity change, negative = cytotoxicity” value is reported as inactive: -0.0107%.
With CCn1cc(C(=O)N2CCN(c3cc(C)ccc3C)CC2)c(=O)c2cc(S(=O)(=O)N3CCOCC3)ccc21 the “activity change, negative = cytotoxicity” value was inactive: 0.794%.
With COc1ccc(Cl)cc1NC(=O)Cn1c(=O)n(Cc2ccco2)c(=O)c2cccnc21 the “activity change, negative = cytotoxicity” value was inactive: 1.92%.
For O=C(NC1CCCCC1)c1cc2c(Cl)nc3ccccc3c2s1, the “activity change, negative = cytotoxicity” value was inactive: 10.8%.
For CCOc1ccc(NC(=O)C(NS(=O)(=O)c2cccc3nsnc23)c2ccccc2)cc1 (configuration not stated), the “activity change, negative = cytotoxicity” value was inactive: 0.539%.
In the case of COc1ccccc1CNC(=O)C(=O)NCC(c1ccco1)S(=O)(=O)c1cccs1 (configuration not stated), the “activity change, negative = cytotoxicity” value is reported as inactive: -6.77%.
In the case of OCCCc1nc2ccccc2n1CCCCOc1ccccc1, the “activity change, negative = cytotoxicity” value is reported as inactive: -21.6%.
For Cc1cccc(-c2noc(CN(C(=O)COc3ccc(Br)cc3C)C(C)C)n2)c1, the “activity change, negative = cytotoxicity” value was inactive: 6.99%.
For Cc1ccc(CCNC(=O)c2cc3sccc3n2Cc2ccc(C)cc2)cc1, the “activity change, negative = cytotoxicity” value was inactive: 5.87%.
With Cc1c(Cl)ccc2sc(NC(=O)c3ccc(S(=O)(=O)N4CCCc5ccccc54)cc3)nc12 the “activity change, negative = cytotoxicity” value was inactive: 11.8%.
In the case of CCCc1cnc2c(c1SCC(=O)N(C)c1ccccc1)c(=O)n(C)c(=O)n2C, the “activity change, negative = cytotoxicity” value is reported as inactive: 1.23%.
For COc1cccc(NC(=O)C2CCCN(S(=O)(=O)c3c(C)[nH]c(=O)[nH]c3=O)C2)c1 (configuration not stated), the “activity change, negative = cytotoxicity” value was inactive: -3.69%.
In the case of O=C(Nc1ccc(Br)c2cccnc12)c1cccc2ccccc12, the “activity change, negative = cytotoxicity” value is reported as inactive: 14.4%.
In the case of CCN(c1cc(C)cc(C)c1)S(=O)(=O)c1nnc(NC(=O)C2CCCCC2)s1, the “activity change, negative = cytotoxicity” value is reported as inactive: 1.12%.
For Cc1cc(C)cc(NC(=O)CCC(=O)N2Cc3ccccc3Oc3ncccc32)c1, the “activity change, negative = cytotoxicity” value was inactive: -7.97%.
In the case of CCOc1ccc(NC(=O)Cn2c(=O)n(Cc3ccco3)c(=O)c3oc4ccccc4c32)cc1, the “activity change, negative = cytotoxicity” value is reported as inactive: -0.338%.
For CCc1ccccc1NC(=O)c1nnn(-c2ccc(F)cc2)c1C, the “activity change, negative = cytotoxicity” value was inactive: 20.2%.
For CC1CCN(S(=O)(=O)c2ccc3c(c2)oc(=O)n3CC(=O)NCc2ccc(F)cc2)CC1, the “activity change, negative = cytotoxicity” value was inactive: -16.3%.
With Cc1cc(C)cc(-n2c(SCC(=O)N3CCCCC3)nc3c([nH]c4ccccc43)c2=O)c1 the “activity change, negative = cytotoxicity” value was inactive: 16.5%.
With CCOc1cc(-c2ccc(OC(=O)c3ccccc3F)cc2)cc(=O)c2c(C)oc(C)c12 the “activity change, negative = cytotoxicity” value was inactive: 11.5%.
In the case of Cc1cc(C)nc(NS(=O)(=O)c2ccc(NC(=O)COc3ccc(Cl)cc3C)cc2)n1, the “activity change, negative = cytotoxicity” value is reported as inactive: 1.48%.
With CCOc1ccc(C(=O)Nc2cc(-c3nc4ccccc4o3)ccc2C)cc1Cl the “activity change, negative = cytotoxicity” value was inactive: -0.493%.
With O=C(CSc1nccn1Cc1ccccc1)NCc1ccc(F)cc1 the “activity change, negative = cytotoxicity” value was inactive: 3.77%.
With CC1CN(C(=O)Nc2ccc(C(=O)NCCc3ccccc3)cc2)c2ccccc2S1 (configuration not stated) the “activity change, negative = cytotoxicity” value was inactive: -18.3%.
With Clc1cccc(N2CCN(c3nc4ccccc4n4cnnc34)CC2)c1 the “activity change, negative = cytotoxicity” value was inactive: 8.14%.
With COc1ccc(NC(=O)CCc2nnc3n(C)c(=O)c4sccc4n23)cc1 the “activity change, negative = cytotoxicity” value was inactive: 6.16%.
With Cc1ccc2nc(-c3ccsc3)c(Nc3ccccc3C)n2c1 the “activity change, negative = cytotoxicity” value was inactive: 5.66%.
In the case of Cc1nc2nncn2c(N2CCN(c3ccccc3)CC2)c1C, the “activity change, negative = cytotoxicity” value is reported as inactive: -4.2%.
In the case of COc1ccccc1/C=C/c1nc(C#N)c(N2CCCCC2)o1, the “activity change, negative = cytotoxicity” value is reported as inactive: -29.5%.
In the case of COCCNC(=O)c1cnn(-c2ccc(C)cc2C)c1C1CCN(C(=O)OC(C)(C)C)CC1, the “activity change, negative = cytotoxicity” value is reported as inactive: -2.51%.
In the case of Cc1ccccc1Cn1c(C(=O)O)c(CNCc2cccc(F)c2)c2ccccc21, the “activity change, negative = cytotoxicity” value is reported as inactive: 1.34%.
For COC(=O)c1scc(-c2ccccc2)c1S(=O)(=O)Nc1ccccc1, the “activity change, negative = cytotoxicity” value was inactive: -6.13%.
For Cn1cc(CN(C(=O)Nc2ccc(Cl)c(Cl)c2)C2CCCCC2)c2ccccc21, the “activity change, negative = cytotoxicity” value was inactive: 19.9%.
With Cc1ccc(-c2cc(C(F)(F)F)n3nc(C(=O)Nc4ccc(Cl)cc4Cl)cc3n2)cc1 the “activity change, negative = cytotoxicity” value was inactive: 5.46%.
In the case of O=C1c2ccccc2C(=O)C1(c1ccccc1)N1CCN(c2cccc(Cl)c2)CC1, the “activity change, negative = cytotoxicity” value is reported as inactive: 3.9%.
In the case of O=C(NCc1ccc(F)cc1)c1ccc(CSCc2cccc(Cl)c2)o1, the “activity change, negative = cytotoxicity” value is reported as inactive: 0.557%.
In the case of COCCNC(=O)Cc1ccc(NC(=O)N2CCCCc3ccccc32)cc1, the “activity change, negative = cytotoxicity” value is reported as inactive: 28.1%.
With CC(=O)Nc1ccc(S(=O)(=O)NCC2CCC(C(=O)NCCc3ccccc3)CC2)cc1 (configuration not stated) the “activity change, negative = cytotoxicity” value was inactive: 0.46%.
In the case of Cc1ccc(CNC(=O)c2cc3sccc3n2Cc2ccc(Cl)cc2)cc1, the “activity change, negative = cytotoxicity” value is reported as inactive: 12.9%.
With CCCn1c(=O)c2sccc2n2c(CCCC(=O)NCCc3ccc(Cl)cc3)nnc12 the “activity change, negative = cytotoxicity” value was inactive: 19.5%.
In the case of CC(CCc1ccccc1)NC(=O)Cn1ncc2c3ccccc3n(Cc3ccc(F)cc3)c2c1=O (configuration not stated), the “activity change, negative = cytotoxicity” value is reported as inactive: -2.55%.
For COc1cccc(N2CC(NC(=O)C(c3ccccc3)c3ccccc3)CC2=O)c1 (configuration not stated), the “activity change, negative = cytotoxicity” value was inactive: -4.04%.
With Cc1ccc(NC(=O)CC(C)S(=O)(=O)c2ccc3c(c2)NC(=O)CO3)c(C)c1 (configuration not stated) the “activity change, negative = cytotoxicity” value was inactive: 7.88%.
In the case of COCC(=O)Oc1c(Sc2ccc(C)cc2)c(C)nn1C(C)(C)C, the “activity change, negative = cytotoxicity” value is reported as inactive: 2.69%.
In the case of COc1cc(-c2ccno2)ccc1S(=O)(=O)N1CCN(c2cc(C)ccc2C)CC1, the “activity change, negative = cytotoxicity” value is reported as inactive: 8.33%.
For COc1ccc(NS(=O)(=O)c2cc3[nH]c(=O)c(=O)[nH]c3cc2C)cc1Cl, the “activity change, negative = cytotoxicity” value was inactive: 10.7%.
With CCC(=O)N1CCc2cc(Br)cc(S(=O)(=O)CCC(=O)NCCc3ccc(OC)c(OC)c3)c21 the “activity change, negative = cytotoxicity” value was inactive: -0.204%.
In the case of CCOc1ccc(/C=C/c2nc(C#N)c(N3CCN(c4ccc(OC)cc4)CC3)o2)cc1, the “activity change, negative = cytotoxicity” value is reported as inactive: 0.548%.
For Cn1cc(S(=O)(=O)N2CCCCCC2)cc1C(=O)N1CCN(c2ccc(F)cc2)CC1, the “activity change, negative = cytotoxicity” value was inactive: 7.84%.
In the case of CCOc1ccc(NC(=O)C(=O)NCCc2csc(-c3ccc(F)cc3)n2)cc1, the “activity change, negative = cytotoxicity” value is reported as inactive: 2.13%.
For CCN(CC)CC(C)CNC(=O)CN1C(=O)CSc2ccc(S(=O)(=O)N3CCOCC3)cc21 (configuration not stated), the “activity change, negative = cytotoxicity” value was inactive: 12.8%.
In the case of CN(C(=O)C1CCCN(c2ncnc3c2nc2n3CCCCC2)C1)c1ccccc1F (configuration not stated), the “activity change, negative = cytotoxicity” value is reported as inactive: -18.1%.
